PubChem BioAssay AID2451 (National Center for Advancing Translational Sciences (NCATS), 2010)
Where “and” joins values, the source holds several entries; their conditions need not be identical. Equal values may be shown once. Out of some 290,000 compounds screened, about 2,100 (0.72%) were called active. Inconclusive results, whose numbers are uncertain, are shown with a selection of clear calls. Calls follow the shape of the dose curve; as a rule, active = well fitted inhibition curve with a large enough effect; inconclusive = small, poorly fitted or top-dose-only effect, or effect the other way; inactive = flat fitted curve, though single readings scatter. Potencies of inconclusive entries are doubtful fits and often do not repeat.

Target: Fructose-bisphosphate aldolase (Giardia intestinalis (strain ATCC 50803 / WB clone C6)) (UniProt A8B2U2)
Assay: qHTS Assay for Inhibitors of Fructose-1,6-bisphosphate Aldolase from Giardia Lamblia; also: nearly all actives have a fitted effect of over 55% in size
Settings: purified Giardia FBPA; activity, negative = inhibition: at 59.6 µM (top of the series) unless noted
Method in brief: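 Giardia FBPA (40 nM reagent) was preincubated 10 min at RT with compound (up to 57.5 uM final), then substrate plus GAPDH/TPI/NAD/arsenate coupling system with diaphorase/resazurin was added; resorufin fluorescence (525/598 nm) was read after 20 min.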
% is scaled to controls: 0 for no effect and ±100 for the full control effect; potency is read from the fitted curve at half-maximal effect; tags tell the direction and shape of the fitted curve.

UniProt A8B2U2, sequence (A8B2U2 whole entry, looked up): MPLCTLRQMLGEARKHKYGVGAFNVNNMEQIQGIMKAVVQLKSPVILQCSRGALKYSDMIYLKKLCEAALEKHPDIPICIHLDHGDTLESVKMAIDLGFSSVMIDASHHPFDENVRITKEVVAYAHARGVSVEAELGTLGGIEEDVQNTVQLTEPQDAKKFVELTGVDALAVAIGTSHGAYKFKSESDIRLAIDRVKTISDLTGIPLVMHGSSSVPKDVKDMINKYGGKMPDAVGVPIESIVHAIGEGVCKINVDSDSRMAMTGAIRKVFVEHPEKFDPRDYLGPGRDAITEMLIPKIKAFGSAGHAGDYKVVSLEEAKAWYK

Structure (SMILES)	Potency	activity, negative = inhibition
CC1=C/C(=C(\c2cc(C)c(O)c(Br)c2)c2ccccc2S(=O)(=O)O)C=C(Br)C1=O	inconclusive: 35.5 µM [inhibitor, single point]	–
CC(=O)CC(c1ccccc1)c1c(O)c2ccccc2oc1=O (stereo not given)	inconclusive: 17.7 µM [activator, partial curve]	–
O=C(CSc1nc2ccccc2s1)NNC(=S)Nc1ccccc1	inconclusive: 15.8 µM [activator, single point]	–
COc1ccc(OCCn2ccnc2)cc1	inconclusive: 25.1 µM [inhibitor, partial curve]	–
N#C/C(=C/Nc1ccccc1)c1ccsc1	inconclusive: 5.01 µM [inhibitor, partial curve, poor fit]	–
CC(N)=NCCCC(N)C(=O)O (stereo not given)	inactive	–
CC1CCCCN1CCCNC(=O)C1CCCN(c2ncnc3c2nc2n3CCCCC2)C1 (stereo not given)	inactive	–
CNC(=S)Nc1cc(C)ccc1OC(F)F	inactive	–
C[N+]1=C2CCCCCN2C(O)(c2ccccc2)C1 (stereo not given)	inactive	–
Cc1ccc2cc3cc(C(=O)NCCCN4CCc5ccccc5C4)oc3nc2c1	inconclusive: 20 µM [inhibitor, partial curve]	–
Cc1nc(C)c(C(=O)Nc2ncc([N+](=O)[O-])s2)o1	inconclusive: 17.7 µM [inhibitor, single point]	–
c1cc(CNc2ccc(N3CCOCC3)cc2)ccn1	inconclusive: 19.9 µM [inhibitor, single point]	–
Cc1cc(NC(=O)CSCC(=O)N(c2cccc(Cl)c2)C(C(=O)NC2CCCCC2)c2ccc(O)c(O)c2)no1 (stereo not given)	inconclusive: 3.15 µM [inhibitor, full curve, poor fit]	–
O=C(NC(=S)NCc1nc2ccccc2[nH]1)c1ccccc1F	inactive	–
O=[N+]([O-])c1ccc2nc(-c3ccc(OC(F)F)cc3)cn2c1	inconclusive: 22.3 µM [inhibitor, partial curve]	–
COc1cccc(/C=N/Nc2ncnc(Cl)c2N)c1O	inconclusive: 11.2 µM [activator, partial curve]	–
C=CCNC(=O)CSc1ncc2c(n1)-c1c(csc1SC)CC2	inconclusive: 15.8 µM [inhibitor, partial curve]	–
COc1cc2ccccc2cc1C(=O)Nc1ccccc1Cl	–	inconclusive: 42.2% [activator]
CN(C)c1nc(-c2ccccn2)nnc1-c1ccccc1	inconclusive: 17.7 µM [inhibitor, single point]	–
S=C(S)N1CCCC1	active: 15.8 µM and active: 12.6 µM	–
COc1cc(NC(=O)c2cccc(Br)c2)nc(OC)n1	inactive	–
Cc1nc2ccc(NC(=O)/C=C/C(=O)O)cc2nc1C	inconclusive: 14.1 µM [inhibitor, partial curve]	–
CC(=O)c1ccccc1OCCCCN1CCCCC1	inconclusive: 15.8 µM [inhibitor, partial curve]	–

Structure (SMILES)	Potency	activity, negative = inhibition
COC(=O)C(C(=O)OC)C(c1ccccc1)C(C(=O)c1ccccc1)[N+](=O)[O-] (stereo not given)	inconclusive: 15.8 µM [inhibitor, single point]	–
COc1ccc(C(=O)NC(=S)N2CC(C)OC(C)C2)cc1 (stereo not given)	inconclusive: 22.3 µM [inhibitor, partial curve]	–
COC(=O)Cc1[nH]n(-c2nc3ccccc3s2)c(=O)c1C(C)=Nc1ccc(Cl)cc1	active: 15.8 µM	–
O=[N+]([O-])c1cccc(-c2ccc(CN3CCN(c4ccccc4)CC3)o2)c1	inconclusive: 14.1 µM [inhibitor, partial curve]	–
CC(=O)N=c1sc2nc3ccccc3nc2n1N(C(C)=O)C(C)=O	inconclusive: 15.8 µM [inhibitor, single point]	–
CC(Oc1ccccc1)C(=O)N/N=C/c1ccccn1 (stereo not given)	inconclusive: 19.9 µM [inhibitor, partial curve]	–
O=C(COC(=O)c1ccc2c(c1Cl)C(=O)c1ccccc1C2=O)NC1CC1	inconclusive: 7.06 µM [inhibitor, partial curve]	–
CCOC(=O)CN1C(=O)C(=O)c2cccc(C)c21	inconclusive: 12.6 µM [inhibitor, partial curve]	–
COc1ccc(C(=O)c2c(C(F)(F)F)oc3c2C(=O)c2ccccc2C3=O)cc1OC	inconclusive: 7.92 µM [inhibitor, single point]	–
CCOC(=O)N1CCN(S(=O)(=O)c2ccc(C(=O)Nc3nnc(CC)o3)cc2)CC1	inconclusive: 35.4 µM [activator, single point]	–
CCCOc1ccc(N2C(=O)CC(SCC(N)C(=O)OCC)C2=O)cc1 (stereo not given)	inconclusive: 35.5 µM [inhibitor, single point]	–
O=c1oc2c(O)c(O)cc3c(=O)oc4c(O)c(O)cc1c4c23	active: 3.97 µM and active: 19.9 µM and active: 1.99 µM	–
COc1cc2nc(Nc3ccc(C)c(C)c3)nc(N)c2cc1OC	inconclusive: 39.8 µM [inhibitor, single point]	–
CC(=O)c1ccc(N2CCN(C(=O)c3cc(-c4ccc5c(c4)OCO5)nc4ccccc34)CC2)cc1	inactive	–
Cc1cc(C(=O)Nc2ccccc2C)c2ccccc2n1	inactive	–
Cc1ccnc(NC(=S)NC(=O)c2ccco2)c1	inconclusive: 17.7 µM [inhibitor, partial curve]	–
Cc1cccc2cc(-c3nc4ccc(C(=O)O)cc4[nH]3)c(=O)oc12	inconclusive: 12.6 µM [inhibitor, partial curve]	–
C=CCn1c(-c2cccn(Cc3ccccc3)c2=O)n[nH]c1=S	inconclusive: 4.46 µM [inhibitor, full curve]	–
CN1c2ccccc2C(C)(C)C12C=Nc1c(ccc3ccccc13)O2 (stereo not given)	active: 11.2 µM	–
COc1ccc2c(c1)O/C(=C\c1ccco1)C2=O	inconclusive: 15.8 µM [inhibitor, single point]	–
COc1cc(C2C3CN(C)CC=C3C(C#N)=C(N)C2(C#N)C#N)ccc1OC(C)C (stereo not given)	inconclusive: 17.7 µM [inhibitor, partial curve]	–
Cc1cc2c(NC(=O)Nc3ccc(C(C)(C)C)cc3)cccc2nn1	inconclusive: 15.8 µM [inhibitor, partial curve]	–
